The supplement of paper PMC11417369
± gives the standard deviation of the averaged measurements. This is one part of the list.

System: PfAP2-I AP2 domain 3 (GST-tagged)
Experiment: gcPBM binding intensity (ln(normalized median fluorescence intensity)); higher = stronger DNA binding
Summary of the method: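 GST-fused DNA-binding domains of P. falciparum, expressed in E. coli, were applied at about 25 μg on average for 1 h to an Agilent 4 × 180k array of primer-extended double-stranded 36-bp intergenic genomic probes and negative controls. Binding intensity is the highest Masliner-normalised natural-log median intensity across replicate spots of either probe orientation, measured with Alexa488 anti-GST antibody and a 488 nm scan.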

Row | Sequence | gcPBM binding intensity (ln)
1 | ATATGTTATATGTAATGTACTTTTGATGTATATATT [XGTACX_site8615] | 7.67 ± 0.59
2 | TATATAAAGCATTGTAGTACTACCAATATTTTTTTT [XGTACX_site3523] | 7.96 ± 0.2
3 | AAAAAATATACATATACACACATATGTATATAGAAT [CACACA_site2170] | 7.51 ± 0.62
4 | AAAATAAACAATGAACAATAAACAATGAACAATGAA [CACACA_negctrl_site1194] | 7.66 ± 0.63
5 | ATATATTATATATATATATATATATATTATTATTGT [TGCATGCA_negctrl_site286] | 8.46 ± 0.24
6 | TATGAATATTTGTATACATGCATATAGAAATCATAT [TGCATGCA_site533] | 7.77 ± 0.57
7 | GCTTTAATCTGAAAGTGTACAGATAATATATTTATA [XGTACX_site2462] | 7.67 ± 0.35
8 | TGCATTATTTACAAGGTGCGTTACAAATGTGTAACA [GTGCAC_site9442] | 11.3 ± 0.88
9 | GATAAATGTATATATGCATGCACATATATTTATACA [TGCATGCA_site748] | 8.46 ± 0.54
10 | TATTTGTAATATTATACACACATTATATATTACAAA [CACACA_site5804] | 7.75 ± 0.59
11 | TATTTTGTATATAAATGTACAAGTATATATTTTTTC [XGTACX_site7855] | 7.49 ± 0.45
12 | CGTAGCCACACTAACACACACAAATATACACAATCA [CACACA_site7379] | 7.84 ± 0.42
13 | ATTTAAATAACGTATGTATATACATATATATATATA [TGCATGCA_negctrl_site207] | 9.21 ± 0.41
14 | AATTAGATTATGCACACACACTTAAAAATAATAAAT [CACACA_site7015] | 10.4 ± 0.62
15 | TTTTTTTTTTTCTTAGTGCGCGTGAAAAATATAAAA | 8.62 ± 0.15
16 | TTACTCAAACAAACAAAAAAAAAAAAAAAAAAAAAA [TGCATGCA_negctrl_site457] | 8.07 ± 1.1
17 | ATATATAGAATGTGTACACACATATGTATTTATATA [CACACA_site810] | 8.02 ± 0.22
18 | ATTTTTTATGGACAAAAGACCTCTGATGTAAATATA [CACACA_negctrl_site1081] | 7.72 ± 0.47
19 | TACTATAACGCACATACACACAAAAAAAAAAAAAAA [CACACA_site8073] | 10.6 ± 0.57
20 | TATATATATATTTTTGCATGTAATTTTTATGAGGAC [TGCATGCA_site884] | 9.03 ± 0.092
21 | TTATACATGAAATATTGTACACATATATATATATAT [XGTACX_site4378] | 9.41 ± 0.56
22 | ATATGGTGATATAGGTGTACATTTTGATGCTTATTT [XGTACX_site4283] | 7.96 ± 0.59

Row | Sequence | gcPBM binding intensity (ln)
23 | ATTCAAATTGTAGAAACACACAAAAACTTAACATAT [CACACA_site2617] | 7.76 ± 0.83
24 | TAGTTAACAAATAATGCACACAAATGGATAAAATTA [CACACA_site9240] | 10.8 ± 0.76
25 | CATATGATATGTTATACACACACGTATATATGAATT [CACACA_site3446] | 8.03 ± 0.21
26 | AAGGGAAAATTAAGGTTGCACTAAAAATATATCTTT [GTGCAC_site9608] | 9.08 ± 0.2
27 | ATGAACATACAATATACACACATATATATTTATATT [CACACA_site4609] | 7.8 ± 0.63
28 | AAGAGAAATTATAACATGTGAAATGTATTATATATA [TGCATGCA_negctrl_site254] | 7.63 ± 0.45
29 | ATTTATATATAATATACACACATATAATCCACATAT [CACACA_site699] | 8.23 ± 0.34
30 | AAAAATAAAAAAATGACACACATATATATATATATA [CACACA_site2307] | 9.56 ± 0.38
31 | TATCTCTTATTTTATTGTACTTAACTATGCTATAAT [XGTACX_site4904] | 7.98 ± 0.49
32 | TAAGTATAATATTGATGTACATATAATAACTTGTAT [XGTACX_site417] | 7.82 ± 0.48
33 | GAATAAATATTAAATGTGCACTTGAATAGATGTAAA | 10.1 ± 0.16
34 | CACGCGCCCGGACACACACACACACCCATATATATA [CACACA_site5251] | 8.61 ± 0.59
35 | TTTTTCATCATATGTTGTACAATGTGTAGATATATT [XGTACX_site3195] | 8.25 ± 0.13
36 | AGATACGATTATATGCGTTCAATATACCAAATAATT [TGCATGCA_negctrl_site501] | 7.65 ± 0.51
37 | CTTTGTGTTAAAAGTAGTACACCAAAAATATGACTT [XGTACX_site622] | 8.2 ± 0.28
38 | TTTTTTCTTTCTTTCAAACACACATTAATTTTATTC [CACACA_site2733] | 7.66 ± 0.56
39 | TTTTTTTTTTTTTGGTGTACTTTTTTTAGAACGCAA [XGTACX_site4207] | 8.21 ± 0.57
40 | AAAAATGAAAGGTGTACACATACAAACATAGAAAGA [CACACA_site5020] | 8.54 ± 0.79
41 | AAAATTTATATAGGCACACAAATAAATTAATACATA [CACACA_site1418] | 7.91 ± 0.4
42 | ATATTAGAAATATGAATAGAAAGAATATATAAGTAT [CACACA_negctrl_site682] | 7.96 ± 0.55
43 | ATTCTACACCCACATACACACATATATATATATATA [CACACA_site3426] | 9.43 ± 0.6
44 | TGTTCAAATTTATTCGATCTTTATATTTAATAAAAC [CACACA_negctrl_site781] | 7.37 ± 0.48

Row | Sequence | gcPBM binding intensity (ln)
45 | AGATACTTTCCTCAAACACACAAAACTATACAACAA [CACACA_site1474] | 7.85 ± 0.45
46 | GTTAGCTCGTTCGGAGCACACACATATATATATATA [CACACA_site8595] | 9.47 ± 0.3
47 | ATTCAGTTCTATAATACACACATATATTGACATTAT [CACACA_site7309] | 8.01 ± 0.52
48 | ATATTCTTCTAAAGGCGTACATCTACATTTATGAAA [XGTACX_site2145] | 8.315 ± 0.021
49 | TTACAACAGAATGGTATTTTTTTATTTTAAAGAAAA [TGCATGCA_negctrl_site230] | 7.34 ± 0.41
50 | ATCCTACTATGTTATACACACAATTACTTTTTTCTC [CACACA_site3712] | 8.27 ± 0.73
51 | ATATGTAAAACTTCAAAAAAATATATTTTATGACGA [GTGCAC_negctrl_site324] | 7.5 ± 0.41
52 | AATATTTATGTGAAGACACACAACTGTTTATTATAT [CACACA_site3447] | 7.68 ± 0.66
53 | TACTACTATCTATATTGTACAAAAGGTGCCTACAAA [XGTACX_site4267] | 9.98 ± 0.3
54 | TATTTCAAAAAAAAAAAAAATAAAAAACAACAACAA [CACACA_negctrl_site893] | 7.79 ± 0.45
55 | AAAAAAAATTATATATGTACTTATTAATCCTTATAT [XGTACX_site1389] | 7.54 ± 0.38
56 | ATTTATATATCGCCCACACACATGTGATTATTTATA [CACACA_site6905] | 8.18 ± 0.62
57 | TCTATTCAAAATAAAAGTACTAGCATGTGAATTGTT [XGTACX_site5530] | 7.87 ± 0.64
58 | TACAAGTTTTTAAAGTGTACCAAAAAAAAAGAATAA [XGTACX_site979] | 8.06 ± 0.34
59 | TTCATTTATTTACTTACACACTTTATATATGTGGTT [CACACA_site4901] | 7.88 ± 0.52
60 | ATATATAAAATATACACACATACTGTTCATTTAAAG [CACACA_site4169] | 7.86 ± 0.51
61 | AATTATATTCTATTCACACATATTCCAACCTCTTTT [CACACA_site4670] | 7.87 ± 0.79
62 | TGTATGTTGTAAAATTGTACATATATATTATATTTA [XGTACX_site4883] | 7.53 ± 0.3
63 | ATGAATATAATAAAGAAACACACGTATACATAATGA [CACACA_site1355] | 7.85 ± 0.88
64 | AAAAGATAATTATGCACACACACACCCAGACACAAC [CACACA_site5428] | 10.3 ± 0.47
65 | TTTGATGGTACACGTACACACCTTGCAAATATTTTT [CACACA_site4645] | 8.15 ± 0.61
66 | TGAAAGAACCTGATTACACACATAAATTATATATAT [CACACA_site26] | 7.9 ± 0.83

Row | Sequence | gcPBM binding intensity (ln)
67 | AGTTCTTCGTACCAAAAAACGGCACGCATATGTATA [TGCATGCA_negctrl_site469] | 8.03 ± 0.75
68 | TGTATTCATACATGCACACGTACATATTTAAATATA [CACACA_site3926] | 8.49 ± 0.23
69 | ATGGAAATATATACATGTACATAAATATATATATAT [XGTACX_site8391] | 9.13 ± 0.5
70 | AGTAGTCTGGAGAAGAGTACATAGTATCTGGTAACC [XGTACX_site2043] | 7.82 ± 0.66
71 | ATGTTTTGCATATATTATATATTTATTTATTTTTTT [CACACA_negctrl_site729] | 7.84 ± 0.73
72 | AGTGGACTTTTTTTTTTTTTTTTTTTTTTTTTATTA [CACACA_negctrl_site547] | 7.96 ± 0.49
73 | TATTTATTGTGATACTTATATTATTTTATGATTAAA [CACACA_negctrl_site901] | 7.48 ± 0.4
74 | AGAGAGATGACAAAAAGATGAATAACGTTAAGGGAT [XGTACX_negctrl_site120] | 8.13 ± 0.91
75 | TGTATATTTTTTATTACACACTTTTTACTTTTTAGA [CACACA_site3069] | 7.87 ± 0.54
76 | TTTTTTAATTGTGATACGTATATTATTTAATGATAA [GTGCAC_negctrl_site704] | 7.74 ± 0.52
77 | ATAAAATATAGATGCACACACATATAGATTTCATAC [CACACA_site7636] | 8.6 ± 0.22
78 | GATATAATTATATTATGGTGTTTTTGATAGATATTT [GTGCAC_negctrl_site313] | 7.51 ± 0.41
79 | AGTATATACACGTGCGTGCACAGATATTCTTTTTTT [GTGCAC_site9398] | 9.61 ± 0.48
80 | TATTTTAAAGAGAAAACATGCATTATATAGAACATT [TGCATGCA_site328] | 7.93 ± 1
81 | ATCAAACCATAAAAGAGTACAAAAGGATGATATTTT [XGTACX_site8883] | 7.88 ± 0.87
82 | ATATATATATATAGTGCACACATATAAAATATATAT [CACACA_site8884] | 11.5 ± 0.15
83 | TTATATGCTCAATGTTGTACATGTAGATATATATAT [XGTACX_site8211] | 8.89 ± 0.092
84 | ATCTGTCGACAGGACAGTACACAGTAGCCAGTAACT [XGTACX_site2001] | 7.63 ± 0.76
85 | AAGTATGTCGACTGTTGTACTTTTATCATTTATTAT [XGTACX_site1129] | 7.9 ± 0.73
86 | ATATACTATGATAATACATGCGATAATACATTTTTA [TGCATGCA_site387] | 7.55 ± 0.73
87 | TATTTATCATCATATTGTACATTATATATATAAAAT [XGTACX_site6675] | 7.75 ± 0.32
